Assay results reported in PubChem BioAssay AID485297 (National Center for Advancing Translational Sciences (NCATS), 2010).
“And” between values parts separate entries of the source, which are not always exact repeats. Identical values can stand only once. In all, about 320,000 compounds went through this assay and about 9,100 (2.8%) were called active. The inconclusive results got no clear call from the source; some entries with a clear call stand among them for comparison. Calls come from the whole dose curve; as a rule, active = well fitted activation curve with a large enough effect; inconclusive = small, poorly fitted or top-dose-only effect; inactive = no such curve, though single readings can be large or run the other way. Potencies of inconclusive entries are left out as doubtful fits.

Test: qHTS Assay for Rab9 Promoter Activators; note: nearly all actives have a fitted effect of over 60% in size; for activation, negative = inhibition: % of control where 0% means no effect
Conditions: Huh7 Rab9 promoter-luciferase reporter, luminescence, 24 h; series mostly up to 9.22 µM; activation, negative = inhibition: at the top concentration
Summary of the method: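 Cell-based reporter: Huh7 stable for Rab9 promoter-driven luciferase, plated in reduced-serum medium with 10% FBS at 1500 cells/well, compound-treated 24 h at 37 °C, luminescence read after 10 min reagent.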
Potency is the fitted concentration of half-maximal effect; tags give direction and shape of the fitted curve.

Row | SMILES | Potency | activation, negative = inhibition
1 | N/C(=N\OC(=O)c1ccc2c(c1)OCO2)c1cccnc1 | inconclusive [activator, single point] | 
2 | COc1cnc(-c2ccccn2)nc1Oc1c(C)cccc1C |  | inactive: -6.95%
3 | Cc1ccc(/C=C/C(=O)Nc2cccc3ncccc23)o1 |  | inactive: -5.3%
4 | CC1(S(=O)(=O)O)CC(=O)c2ccccc2C1=O (stereo not drawn) |  | inactive: 3.72%
5 | CN(C)c1ccc(/C=c2\sc3n(c2=O)CCCN=3)cc1 | active: 0.316 µM | 
6 | Cc1cccc(-c2noc(Cc3ccc(Cl)cc3)n2)c1 | inconclusive [activator, partial curve] | 
7 | O=C(/C=C\N1CCOCC1)c1ccc(Br)cc1 | inconclusive [activator, partial curve] | 
8 | N/C(=N\OC(=O)/C=C/c1ccccc1)c1ccccc1 | inconclusive [activator, single point] | 
9 | O=C(Cc1ccccc1)c1nc2ccccc2s1 | active: 2.82 µM | 
10 | O=c1[nH]c2ccccc2nc1-c1ccccc1 | inconclusive [activator, partial curve, poor fit] | 
11 | Cc1ccc(NC(=O)CSCc2ccc(F)cc2)cc1 | inconclusive [activator, single point] | 
12 | Cc1ccc(NS(=O)(=O)c2ccc(C(=O)N3CC(C)CC(C)C3)cc2)cc1 (stereo not drawn) |  | inactive: -6.11%
13 | Cc1cc(C)n(-c2nnc(SCC(=O)NC3CCCC3)c3ccccc23)n1 |  | inactive: -4%
14 | Cc1nc(SCC(=O)c2ccccc2)n[nH]1 | inconclusive [activator, single point] | 
15 | c1ccc(-c2n[nH]c(-c3ccccn3)n2)nc1 | active: 3.55 µM and active: 2.82 µM | 
16 | Cc1cccc(OCC(=O)Nc2sc3c(c2C#N)CCC3)c1 | inconclusive [activator, partial curve] | 
17 | COc1ccc(Cc2c(O)nc[nH]c2=O)cc1 |  | inactive: -1.06%
18 | NC(=O)CSc1nc2sc(-c3ccccc3)cc2c(=O)n1N |  | inactive: 23.7%
19 | O=S(=O)(c1ccc2nc(N3CCN(c4ccc(F)cc4)CC3)ccc2c1)N1CCCCC1 |  | inactive: -11.7%
20 | N/C(=N\N=C/c1ccc(Br)cc1)N/N=C\c1ccc(Br)cc1 | inconclusive [activator, partial curve] | 
21 | COCCCNC(=O)/C(C#N)=C/c1ccc(F)cc1 |  | inactive: 0.699%

Row | SMILES | Potency | activation, negative = inhibition
22 | O=C(Nc1ccc(Cl)cc1)Nc1ccc2c(c1)OCO2 | active: 1.78 µM | 
23 | COc1ccc(C(=O)N=c2sc3c(C)ccc(OC)c3n2C)cc1 | inconclusive [activator, full curve, poor fit] | 
24 | N#CC(c1ccccc1O)N1N=C(c2ccccc2)CC1c1ccccc1 (stereo not drawn) | inconclusive [activator, partial curve] | 
25 | CCOc1ccc(NC(=O)Nc2cnccn2)cc1 | inconclusive [activator, single point] | 
26 | COC(=O)c1sccc1-c1ccc(C(=O)Nc2cccnc2)o1 | active: 3.55 µM | 
27 | COc1ccccc1NC(=O)c1ccc2c(c1)OCO2 | active: 3.98 µM | 
28 | Cc1ccc2nc(N(CCCN(C)C)C(=O)c3ccc4ncsc4c3)sc2c1 | active: 3.98 µM | 
29 | O=C(O)c1ccc(N/N=C/c2cn(Cc3ccccc3F)c3ccccc23)cc1 | inconclusive [activator, partial curve] | 
30 | Cc1ccc2nc(-c3cccc(S(=O)(=O)N(C)C)c3)cn2c1 | active: 3.16 µM | 
31 | FC(F)(F)c1cnc(-c2cnc(-c3cccnc3)nc2)c(Cl)c1 | active: 3.98 µM | 
32 | CC(C)c1ccc(OCc2ccc(C(=O)O)o2)cc1 | inconclusive [activator, partial curve, poor fit] | 
33 | C/C(=N\NC(=O)c1ccccc1O)c1cccc(NC(=O)c2ccccc2)c1 |  | inactive: 11.1%
34 | COc1cc(OC)cc(C(=O)Nc2ccc3nc4n(c(=O)c3c2)CCCCC4)c1 | active: 3.55 µM | 
35 | CCOc1ccc(-c2ccc(SC)nn2)cc1 | active: 0.316 µM | 
36 | CC(=O)Nc1ccc(/C=C2\CCc3ccccc3C2=O)cc1 | inconclusive [activator, partial curve] | 
37 | c1ccc2c(c1)oc1c(Nc3ccc4c(c3)OCCO4)ncnc12 | active: 1.58 µM | 
38 | CCOC(=O)c1c(C)[nH]c(C2=NNC(=Nc3ccccc3)SC2)c1C | active: 2.51 µM | 
39 | Cc1ccc2c(CN(C)Cc3ccccc3)cc(=O)oc2c1C | inconclusive [activator, single point] | 
40 | COc1ccc(-c2nc(-c3cccs3)no2)cc1 | active: 0.1 µM | 
41 | COc1ccc([C@H]2CC(=O)C=C(c3ccc(Cl)c(C(F)(F)F)c3)C2)cc1 |  | inactive: -2.2%
42 | COC(=O)CN1C(=S)N(c2ccc(F)cc2)C(=O)C1CC(=O)Nc1ccc(OC)cc1 (stereo not drawn) | inconclusive [activator, single point] | 

Row | SMILES | Potency | activation, negative = inhibition
43 | CCOc1ccc(C(=O)Nc2ccc3c(c2)OCCO3)cc1 | active: 0.398 µM | 
44 | O=C(COC(=O)c1ccccc1Br)NCCc1ccc(F)cc1 |  | inactive: 2.12%
45 | CCCn1cnc2c(sc3nc4c(cc32)CSC(C)(C)C4)c1=O | active: 1.58 µM | 
46 | CCSc1nnc(NC(=O)COc2ccccc2[N+](=O)[O-])s1 | inconclusive [activator, partial curve] | 
47 | CC(=O)c1ccc(NC(=O)CCOc2cc(C)ccc2C)cc1 | inconclusive [activator, single point] | 
48 | COc1ccccc1-c1nnc(SCC(=O)N2CCOCC2)o1 |  | inactive: 18.1%
49 | c1ccc(-n2nnc3c(N4CCOCC4)ncnc32)cc1 | active: 0.316 µM | 
50 | NC(=O)c1ccsc1NC(=O)CCc1ccccc1 | inconclusive [activator, partial curve] | 
51 | COCCn1c(C)cc(C(=O)CN2C(=O)NC3(CCCCCCC3)C2=O)c1C | active: 3.98 µM | 
52 | COc1ncccc1-c1nnn(-c2ccc(C)cc2)n1 | active: 3.16 µM | 
53 | O=C(/C=C/c1ccco1)Nc1nc(-c2ccccn2)cs1 | inconclusive [activator, partial curve] | 
54 | O=c1c2ccccc2ncn1CCOc1ccccc1[N+](=O)[O-] | inconclusive [activator, single point] | 
55 | O=C(NCCCn1ccnc1)c1ccc(Br)s1 |  | inactive: 12.8%
56 | Cc1cc(N2CCOCC2)ccc1/C=C1/SC(=O)NC1=O | inconclusive [activator, partial curve] | 
57 | Cc1ccc(-n2ncc3c(N4CCCC4)ncnc32)c(C)c1 | inconclusive [activator, partial curve] | 
58 | CS(=O)(=O)Nc1cccc(-c2cnc3ccccc3n2)c1 | active: 4.47 µM | 
59 | O=C(Nc1ccc2c(c1)OCCO2)c1ccoc1 | inconclusive [activator, partial curve] | 
60 | O=C(/C=C/c1ccccc1)c1ccccn1 | inconclusive [activator, single point] | 
61 | O=C(NCCCn1ccnc1)c1cc(-c2cccnc2)nc2ccc(Br)cc12 |  | inactive: 4.05%
62 | N#C/C(=C\c1ccc[nH]1)C(=O)Nc1ccccc1[N+](=O)[O-] | inconclusive [activator, partial curve, poor fit] | 
63 | CC(=O)c1cccc(NC(=O)Nc2ccc3c(c2)CCC3)c1 | inconclusive [activator, partial curve] | 

Row | SMILES | Potency | activation, negative = inhibition
64 | COCCCN(CC(=O)Nc1ccc(N2CCOCC2)cc1)S(=O)(=O)c1ccccc1 | inconclusive [activator, single point] | 
65 | Cc1csc(NC(=O)CSc2nnc(-c3ccccc3)o2)n1 | active: 2 µM | 
66 | COc1cccc2oc(-c3ccco3)cc(=O)c12 | inconclusive [activator, single point] | 
67 | COc1ccc(CNC(=O)Cn2nnc(-c3ccc(NC(=O)C4CCCCC4)cc3)n2)cc1 | inconclusive [activator, partial curve] | 
68 | O=[N+]([O-])c1nn(-c2ccc3c(c2)OCCO3)n(O)c1=NCc1ccccc1Cl | inconclusive [activator, partial curve] | 
69 | Cc1ccc(N2C(=O)C3C4C=CC(CNC(=S)N5CCN(c6ccccc6)CC5)(O4)C3C2=O)cc1 (stereo not drawn) |  | inactive: -0.579%
70 | CCOc1ccc(S(=O)(=O)NCCC(=O)NCC2CCCO2)cc1 (stereo not drawn) |  | inactive: -7.38%
71 | O=C(Nc1nccs1)c1ccc2c(c1)OCO2 | active: 1.58 µM | 
72 | CCCCN(CCCC)CCNC(=O)c1cn(C)c2ccc(S(=O)(=O)N3CCCC3)cc2c1=O |  | inactive: -4.46%
73 | c1ccc2sc(NN=C3CCCCCC3)nc2c1 | active: 0.224 µM | 
74 | O=C(Nc1ccc2c(c1)OCO2)C1CC1(Cl)Cl (stereo not drawn) | inconclusive [activator, single point] | 
75 | COc1cc(Cl)c(C)cc1NC(=O)CCN1C(=O)NC(C)(C)C1=O |  | inactive: -1.62%
76 | O=C(COc1ccccc1)Nc1ccc(N2CCCCC2)cc1 | inconclusive [activator, partial curve] | 
77 | Cn1c2ccccc2c(=O)c2c(=O)n(-c3ccccc3)c(C3CCCCC3)nc21 |  | inactive: -7.41%
78 | CCOC(=O)C1=C(C)NC(C)=C(C(=O)OCC)C1c1ccc(O)cc1 |  | inactive: 11.8%
79 | Cc1ccnc(N=Cc2nc(-c3ccccc3Br)oc2O)c1 | inconclusive [activator, partial curve] | 
80 | Cc1cc(NC(=O)c2ccc3c(c2)C(=O)N(C(C)(C)C)C3=O)no1 | inconclusive [activator, single point] | 
81 | O=[N+]([O-])c1ccc(Oc2cccc3cccnc23)c(Cl)c1 |  | inactive: -10.7%
82 | Cc1ccc(C(=O)Nc2ccc3c(c2)ncn3C)cc1 | active: 3.98 µM | 
83 | COc1cccc(-c2nc3ccc(C(=O)N4CCCC(O)C4)cc3o2)c1 (stereo not drawn) | active: 3.55 µM | 
